From publication PMC4336329 (PLoS ONE, 2015)
In all, about 310,000 compounds went through this assay and about 14,000 (4.5%) showed an effect of 50% or more. Effects have a minus sign here. The list shows a part of the results.

The compounds below were run against human ether-à-go-go-related gene (hERG) potassium channel (human, UniProt Q12809) (assay: primary screen, population patch clamp on CHO cells stably expressing hERG).
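Note: peak tail current of the secondary pulse compared with the same well before compound.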

human ether-à-go-go-related gene (hERG) potassium channel, sequence (Q12809 whole entry, looked up): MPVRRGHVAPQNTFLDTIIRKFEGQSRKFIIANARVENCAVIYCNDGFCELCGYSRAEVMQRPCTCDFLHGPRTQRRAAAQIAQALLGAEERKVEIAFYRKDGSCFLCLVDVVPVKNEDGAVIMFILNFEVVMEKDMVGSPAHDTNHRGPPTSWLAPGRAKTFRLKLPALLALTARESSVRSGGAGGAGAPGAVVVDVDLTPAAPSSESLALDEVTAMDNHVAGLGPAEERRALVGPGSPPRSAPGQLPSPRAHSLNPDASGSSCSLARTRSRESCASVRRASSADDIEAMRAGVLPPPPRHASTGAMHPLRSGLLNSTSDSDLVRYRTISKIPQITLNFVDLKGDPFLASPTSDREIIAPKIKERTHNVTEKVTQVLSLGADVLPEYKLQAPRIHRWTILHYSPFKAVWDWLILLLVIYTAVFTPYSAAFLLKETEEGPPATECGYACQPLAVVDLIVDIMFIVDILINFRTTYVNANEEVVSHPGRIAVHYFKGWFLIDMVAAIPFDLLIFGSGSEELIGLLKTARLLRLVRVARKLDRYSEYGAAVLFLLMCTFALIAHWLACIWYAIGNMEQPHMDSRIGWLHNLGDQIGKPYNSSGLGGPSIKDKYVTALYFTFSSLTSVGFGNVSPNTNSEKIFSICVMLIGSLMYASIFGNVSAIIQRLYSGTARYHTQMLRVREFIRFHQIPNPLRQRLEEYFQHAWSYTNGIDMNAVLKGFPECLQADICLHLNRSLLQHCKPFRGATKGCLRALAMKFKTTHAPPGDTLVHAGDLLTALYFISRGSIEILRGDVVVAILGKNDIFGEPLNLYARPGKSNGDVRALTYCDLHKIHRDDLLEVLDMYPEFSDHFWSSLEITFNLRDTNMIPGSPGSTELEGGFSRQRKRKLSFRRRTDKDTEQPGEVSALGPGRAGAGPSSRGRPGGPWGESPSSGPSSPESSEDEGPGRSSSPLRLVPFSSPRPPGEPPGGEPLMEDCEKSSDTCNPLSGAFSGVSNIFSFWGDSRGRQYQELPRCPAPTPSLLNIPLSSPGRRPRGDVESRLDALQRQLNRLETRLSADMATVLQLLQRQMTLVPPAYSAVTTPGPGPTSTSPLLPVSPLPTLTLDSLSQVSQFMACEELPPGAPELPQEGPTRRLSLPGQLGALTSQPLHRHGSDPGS

Structure (SMILES) | hERG current change (%, negative = inhibition) at 10uM [%]
Cc1ccc(S(=O)(=O)N2CCC(N3CCCCCC3)CC2)cc1 | -23.2
CCCN(CC(=O)Nc1ccccc1C)C(=O)c1ccc(=O)n(Cc2ccccc2)n1 | -0.41
CS(=O)(=O)N1CCN(c2ccccc2NC(=O)c2cccnc2Cl)CC1 | -3.05
O=S(=O)(NCCc1ccc(Cl)cc1)c1cccs1 | -13.7
Cc1ccc(Oc2ccc(C(=O)NC3CCSC3=O)cn2)cc1 (stereo not drawn) | 12
COc1ccccc1NC(=O)C(=O)N/N=C(\C)CC(=O)Nc1ccccc1C(F)(F)F | 1.39
Cc1nc(SCC(=O)O)c2oc3ccccc3c2n1 | 3.47
COc1ccc(Cn2nnc3c(=O)[nH]c(C4CCN(S(=O)(=O)c5ccc(C)cc5)CC4)nc32)cc1 | 11.1
O=C(NC1CCCC1)C(c1ccc(N2CCOCC2)cc1)N(Cc1ccccc1)C(=O)c1ccco1 (stereo not drawn) | 2.44
O=C(/C=C/c1ccc(S(=O)(=O)N2CCOCC2)cc1)NCc1ccccc1F | -0.948
N#C/C(=C/c1ccc(Oc2ccc([N+](=O)[O-])cn2)cc1)C(=O)N1CCOCC1 | -13.3
CNC(=S)NCc1ccc2[nH]c3c(c2c1)CCCC3 | -3.58
CC(C)(CCl)C(=O)Nc1ccc(C(F)(F)F)cc1 | 5.42
Cc1ccc(-c2csc3nnc(SCC(=O)Nc4cccc(C)n4)n23)cc1 | -7.84
CC1CN(C(=O)CN2C(=O)NC(C)(c3ccccc3)C2=O)CC(C)O1 (stereo not drawn) | 8.79
Cc1ccc(C(=O)O)cc1NC(=O)C1=CSCCO1 | 10.5
CC1(C)Cc2c(c(=S)nc(-c3ccccc3)n2CCOCCO)CO1 | -16.3
COc1ccc(-c2nc3ccccc3c(=O)n2NC(=O)c2cccnc2Cl)cc1OC | 7.24
CCOc1ccc(N2C(=O)CC(Cc3ccccc3OC)C2=O)cc1 (stereo not drawn) | 3.64
O=C(CCNC(=O)c1ccc([N+](=O)[O-])cc1)NNC(=O)c1ccncc1 | -13.2
Cc1nn(Cc2ccccc2Cl)c(C)c1NC(=O)CCCn1nc(C)c([N+](=O)[O-])c1C | -30.7
[O-][N+]1=C2CCC/C(=N\O)C2=NC12CCCCC2 | 4.64

Structure (SMILES) | hERG current change (%, negative = inhibition) at 10uM [%]
O=C1c2ccccc2C(=O)N1Cc1nc2ccccc2c(=O)n1Cc1ccco1 | 21.3
Cc1cc(C)n(-c2ccc(NC(=O)C3CCN(Cc4ccc(C)o4)CC3)cc2)n1 | -16.6
COC(=O)c1ccc(NC(=O)c2ccc3c(c2)C(=O)N(C)C3=O)cc1 | 8.87
O=C(COc1ccccc1)Nc1ccc(-c2ccc(N3CCOCC3)nn2)cc1 | -9.81
CCOc1ccc(N2CC(C(=O)N3CCc4ccccc43)CC2=O)cc1 (stereo not drawn) | -47.6
O=C(NCCc1nc(-c2ccccc2)no1)c1ccco1 | 3.25
Cc1ccc(C23CC4CC(CC(C(=O)OCC(=O)NC5CCS(=O)(=O)C5)(C4)C2)C3)cc1 (stereo not drawn) | -4.71
COc1cccc(Nc2cc(C)nc3nc(C)nn23)c1 | -12.8
COc1ccc(C2C(C(C)=O)=C(O)C(=O)N2c2ccccn2)cc1 (stereo not drawn) | 15.5
O=C(CCCn1c(=S)[nH]c2cc3c(cc2c1=O)OCO3)N1CCN(C2CCCCC2)CC1 | -36.7
Cc1noc(/C=C/c2ccc(-c3ccccc3Cl)o2)c1[N+](=O)[O-] | 3.66
O=C(C1=NN(c2ccccc2)C2C(=O)N(c3ccc(Cl)cc3)C(=O)C12)c1ccccc1 (stereo not drawn) | 4.5
Cc1cc(C)nc(SCC(=O)c2c(N)n(C)c(=O)n(C)c2=O)n1 | 5.44
O=C(/C=C/c1ccccc1Cl)NCCc1ccc(F)cc1 | -1.24
CN(CC(=O)Nc1ccc(Cl)cc1)C(=O)c1cccc(S(=O)(=O)N(C)C)c1 | -8.91
COc1ccc(-n2c(=O)c(CCC(=O)N3CCC(C)CC3)nc3ccccc32)cc1 | -14.1
CCOc1ccccc1N(CC(=O)N1CCOCC1)S(=O)(=O)c1ccccc1 | -4.79
O=C(N/N=C1\CCCc2ccccc21)c1ccc([N+](=O)[O-])cc1 | -15.3
CN(c1ccccc1)S(=O)(=O)c1ccc(NC(=O)c2cccs2)cc1 | 17.9
CCOc1ccc(CN2CCC(C(=O)Nc3cccc(-c4ccn[nH]4)c3)CC2)cc1Cl | -62.3
Cc1ccsc1/C=N/NC(=O)c1cc(-c2ccncc2)nc2ccccc12 | -13.3
COc1ccc(N2CCN(C3CCCN(C(=O)CN4CCCCC4=O)C3)CC2)cc1 (stereo not drawn) | 14.2

Structure (SMILES) | hERG current change (%, negative = inhibition) at 10uM [%]
N#C/C(=C\c1ccc[nH]1)C(=O)c1ccccc1 | 28.3
CNC(=O)c1cccc2nc3ccccc3nc12 | 9.6
CNC(=S)NNC(=O)c1ccc(N(C)C)cc1 | 0.516
COc1cccc(C(O)C2OC(=O)c3ccccc32)c1OC (stereo not drawn) | 10.5
Cc1[nH]c2ccc(C(=O)NCC(C)(C)N3CCOCC3)cc2c1C | -7.68
CCc1ccc(-c2nc(CN3CCC(C(=O)NCc4ccco4)CC3)c(C)o2)cc1 | -66.3
COc1cccc(CN2CCNC(=O)C2CC(=O)NCCCn2ccnc2)c1 (stereo not drawn) | 37.2
O=C(COc1ccccc1C(=O)NCc1ccccn1)Nc1ccc(Br)cc1 | 12
CCS(=O)(=O)N1CCC(c2nc(-c3ccc(C(F)(F)F)cc3)no2)CC1 | -6.29
COc1ccc(C(=O)CSc2nnn(-c3cccc(NC(C)=O)c3)n2)cc1 | -4.13
Cc1ccccc1-n1c(Cn2c(=O)sc3ccccc32)nnc1SC(C)C | 1.46
Cn1ncc(Br)c1C(=O)NCc1cccs1 | -4.62
CCN(CC)CCNC(=O)c1cccc(NC(=O)C(=O)c2ccccc2NC(C)=O)c1 | 10.1
CSc1ccccc1C(=O)Nc1ccc(C)c(C)c1 | 5.72
O=C(CCNS(=O)(=O)c1ccc(Br)cc1)N1CCN(c2ccccc2O)CC1 | -36.8
Cc1ccc(S(=O)(=O)N2CCCC(N3CCOCC3)C2)cc1Cl (stereo not drawn) | 9.65
COc1ccc(CC(=O)NC(C)c2nnc(SCCC(=O)Nc3ccccc3)n2C)cc1 (stereo not drawn) | 23.5
COc1cc(C2CC(=O)N(c3ccc(C)cc3)C(=O)C2)cc(OC)c1OC | 16.6
O=C(NCCCn1ccnc1)c1ccc(C(F)(F)F)cc1 | -10.8
COc1cc(/C=C2/C(=O)NC(=O)N(c3ccccc3)C2=O)ccc1O | -0.0161
CC(C)(CSc1ccccn1)NS(=O)(=O)c1ccc(Cl)cc1 | -15.4
COc1ccc(-c2cc(N)n(S(=O)(=O)Cc3ccccc3)n2)c(OC)c1 | -12.8

Structure (SMILES) | hERG current change (%, negative = inhibition) at 10uM [%]
CC(=O)c1ccc(NC(=O)Cn2cnc(S(=O)(=O)N3CCC(C)CC3)c2)cc1 | 21.4
COC(=O)c1cc(=O)n(CCc2ccc(OC)c(OC)c2)c(=Nc2ccc(F)c(Cl)c2)s1 | -3.78
Cc1cc(Cl)ccc1NC(=S)NCc1cccs1 | 5.68
Cc1[nH]c(=O)[nH]c(=O)c1S(=O)(=O)Nc1ccc(F)cc1F | 11.8
CN(C)CP(=O)(Nc1ccccc1)N(C)C (stereo not drawn) | 25.8
Cc1ccc(S(=O)(=O)c2nc(-c3ccco3)oc2SCC(N)=O)cc1 | -16.6
Cc1ccccc1NC(=O)CN1C(=O)CSc2ccc(S(=O)(=O)N3CCCCC3)cc21 | 12.2
CCOC(=O)C1=C(C)N=C2SC(C)C(=O)N2C1c1ccc(OC(C)=O)c(OCC)c1 (stereo not drawn) | 6.67
COc1ccc2nc(NC(=O)C(NS(=O)(=O)c3cccs3)C(C)C)sc2c1 (stereo not drawn) | 8.73
O=c1cc(CNc2cc(Cl)ccc2Cl)nc2sccn12 | 9.99
COc1ccc(NC(C)=O)cc1NC(=O)CN1CCN(c2ccccn2)CC1 | 10.3
NC1=NC[C@H](Cc2ccc(O)cc2)N1CCc1cc(C(F)(F)F)cc(C(F)(F)F)c1 | 6.86
COc1ccc2c(c1)c(C(=O)CN1CCCCC1)c(C)n2C | 4.9
O=C1C2C3CC(C(Br)C3Br)C2C(=O)N1c1ccccn1 (stereo not drawn) | 5.5
Cc1ccc(S(=O)(=O)N2CCOCC2)cc1C(=O)NC(=S)N(Cc1ccccc1)C(C)C | 7.15
CCc1cc(C(=O)OC)c(NC(=O)CC2SC(N)=NC2=O)s1 (stereo not drawn) | -6.56
COc1ccc(C(=O)CCN2CCCCCC2)cc1.Cl | -20
CCOc1ccccc1C(=O)N(CCC(=O)OC)c1ccccn1 | 13.7
O=C(CSc1nnnn1C1CCCCC1)Nc1ccc2c(c1)OCO2 | 14
O=C(O)CCc1nn2c3ccccc3nc2n(Cc2ccccc2)c1=O | 36.2
COCCC1CCCCN1C(=O)c1cc(COc2ccc(C)nc2)on1 (stereo not drawn) | -16.2
